Test results: PubChem BioAssay AID504332 (National Center for Advancing Translational Sciences (NCATS), 2011)
The whole screen tested about 350,000 compounds, of which about 31,000 (8.9%) were called active. Inconclusive results, whose numbers are uncertain, are shown with a selection of clear calls. The call rests on the fitted dose curve; in most records, active means well fitted inhibition curve with a large enough effect; inconclusive means small, poorly fitted or top-dose-only effect; inactive means no such curve, though single readings can be large or run the other way. Where the call is inconclusive, the potency comes from a doubtful curve fit.
Further: nearly all actives have a fitted effect of over 75% in size.
On the % scale 0 is the no-effect control and ±100 the full control effect; potency means the concentration at half of the fitted maximal effect; tags describe the fitted curve by direction and shape.

The compounds below were run against Histone-lysine N-methyltransferase EHMT2 (Homo sapiens) (UniProt Q96KQ7) (assay: qHTS Assay for Inhibitors of Histone Lysine Methyltransferase G9a). Conditions: G9a H3K9 monomethylation, AlphaScreen, 2 h; activity, negative = inhibition: at 59 µM (top of the series) unless noted.
Sequence of UniProt Q96KQ7 (Q96KQ7 whole entry, looked up): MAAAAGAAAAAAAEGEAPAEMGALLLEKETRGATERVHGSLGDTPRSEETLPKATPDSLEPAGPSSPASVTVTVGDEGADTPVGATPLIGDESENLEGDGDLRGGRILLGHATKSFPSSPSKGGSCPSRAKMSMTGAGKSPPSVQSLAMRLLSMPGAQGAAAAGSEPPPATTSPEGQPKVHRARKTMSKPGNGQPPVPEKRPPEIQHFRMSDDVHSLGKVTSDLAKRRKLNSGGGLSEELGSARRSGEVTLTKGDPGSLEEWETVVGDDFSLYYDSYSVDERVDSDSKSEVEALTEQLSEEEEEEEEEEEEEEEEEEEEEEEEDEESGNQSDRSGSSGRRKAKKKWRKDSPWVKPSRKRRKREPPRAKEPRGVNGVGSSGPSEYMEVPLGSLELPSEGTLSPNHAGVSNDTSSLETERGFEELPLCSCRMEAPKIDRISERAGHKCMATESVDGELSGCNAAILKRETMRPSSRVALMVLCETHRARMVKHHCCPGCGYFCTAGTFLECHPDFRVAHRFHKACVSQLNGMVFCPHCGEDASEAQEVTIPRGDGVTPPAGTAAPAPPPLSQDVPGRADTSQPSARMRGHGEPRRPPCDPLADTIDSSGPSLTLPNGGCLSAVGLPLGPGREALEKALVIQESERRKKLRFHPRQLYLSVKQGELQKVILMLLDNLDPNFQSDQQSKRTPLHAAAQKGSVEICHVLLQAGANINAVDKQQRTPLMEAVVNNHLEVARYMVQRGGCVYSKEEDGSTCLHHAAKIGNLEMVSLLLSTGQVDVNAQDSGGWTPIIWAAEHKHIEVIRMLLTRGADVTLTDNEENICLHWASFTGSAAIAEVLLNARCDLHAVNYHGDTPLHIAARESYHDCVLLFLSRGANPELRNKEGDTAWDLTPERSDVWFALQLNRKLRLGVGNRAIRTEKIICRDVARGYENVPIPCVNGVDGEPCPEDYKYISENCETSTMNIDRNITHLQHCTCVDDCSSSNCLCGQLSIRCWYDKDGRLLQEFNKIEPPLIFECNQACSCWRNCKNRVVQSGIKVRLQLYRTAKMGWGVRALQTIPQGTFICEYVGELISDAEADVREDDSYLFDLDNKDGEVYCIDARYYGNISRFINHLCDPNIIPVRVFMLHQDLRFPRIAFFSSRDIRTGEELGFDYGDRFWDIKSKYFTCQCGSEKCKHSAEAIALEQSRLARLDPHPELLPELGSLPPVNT
Summary of the method: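 Quantitative HTS format: methyltransferase activity on a biotin-tagged H3K9 peptide is measured by AlphaScreen, using a rabbit anti-monomethyl-H3K9 antibody with streptavidin donor and anti-IgG acceptor beads. Final levels are 20 nM enzyme, 500 nM peptide, 20 uM SAM; 2 h RT.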
For `COCCSc1ccccc1C(=O)Nc1ccc2c(c1)OCCO2`, the Potency was active: 3.55 µM.
`Cn1c(=O)cc(NCc2ccccc2)[nH]c1=O` was tested, and the activity, negative = inhibition was inactive: -25.7% [at 2.33 µM].
With `O=C(O)c1ccc(Cl)c(NCc2cccs2)c1` the Potency was inconclusive: 79.4 µM [inhibitor, single point].
In the case of `O=C(CNc1cccc(Cl)c1)NNC(=S)NCc1ccccc1`, the Potency is reported as inconclusive: 44.7 µM [inhibitor, partial curve].
`Cc1ccc(C(=O)CSc2ncnc3sc4c(c23)CCC(C)C4)cc1` (stereo not given) was tested, and the Potency was inconclusive: 39.8 µM [inhibitor, single point].
With `CC(NS(=O)(=O)c1ccccc1)C(c1cccs1)N1CCOCC1` (stereo not given) the Potency was “inactive”.
For `COc1ccc(-c2c(C#N)c(N)nc3c2CCC3)cc1`, the Potency was “inactive”.
For `Fc1ccc(N2CCN(Cc3cnc(Oc4ccc(Br)cc4)s3)CC2)cc1`, the Potency was inconclusive: 10 µM [inhibitor, full curve].
With `COc1cc(Cl)c(C)cc1NC(=O)C1CCCN(c2ncnc3onc(-c4ccc(F)cc4)c23)C1` (stereo not given) the Potency was “inactive”.
In the case of `O=C(c1ccc(Br)o1)N1CCC(c2nc3ccccc3[nH]2)CC1`, the activity, negative = inhibition is reported as inactive: 13.6% [at 2.33 µM].
In the case of `O=C(c1ccc2c(c1)N(Cc1cccc(Cl)c1)C(=O)c1ccccc1S2(=O)=O)N1CCc2ccccc21`, the Potency is reported as inconclusive: 7.94 µM [inhibitor, partial curve, poor fit].
For `CCOc1ccc(C(=O)NCC(=O)OCc2cc(C(C)=O)ccc2OC)cc1`, the Potency was active: 44.7 µM.
For `Cc1ccc(C(=O)N2CCN(c3cccc(Cl)c3)CC2)cc1-n1c(C)nc2cccnc21`, the Potency was inconclusive: 6.31 µM [inhibitor, single point].
`CCNC(=O)CC1C(=O)N(c2ccc(F)cc2)C(=O)N1Cc1ccc(OC)c(OC)c1` (stereo not given) was tested, and the Potency was “inactive”.
`Cc1cc(NC(=O)CSc2ccc3nnc(-c4cccs4)n3n2)no1` was tested, and the Potency was inconclusive: 89.1 µM [inhibitor, single point].
With `CN1CCN(C(=S)c2cn(CCOc3ccccc3)c3ccccc23)CC1` the Potency was active: 39.8 µM.
For `CCOc1ccc2c(c1)C(=O)C(=O)N2CC1COc2ccccc2O1` (stereo not given), the Potency was inconclusive: 20 µM [inhibitor, full curve, poor fit].
`COc1cccc(-c2nnc(SCC3CNC(=O)O3)n2-c2ccc(Cl)cc2)c1` (stereo not given) was tested, and the Potency was active: 14.1 µM.
In the case of `CC(C)c1nccn1S(=O)(=O)c1cccc([N+](=O)[O-])c1`, the Potency is reported as “inactive”.
For `COCCN1C(=O)C(O)=C(C(=O)c2cccs2)C1c1ccccc1` (stereo not given), the Potency was active: 17.8 µM.
For `Cc1cc(C(=O)NCc2cc(C(=O)O)oc2C)c(C)o1`, the Potency was inconclusive: 22.4 µM [inhibitor, single point].
For `Cc1cccn2c(=O)c(C=Nc3ccccc3)c(NCCO)nc12`, the Potency was inconclusive: 100 µM [inhibitor, single point].
For `CC(C)C[C@H](NC(=O)c1cc2cc(Cl)ccc2n1C)C(=O)N1CCC[C@H]1C(=O)O`, the Potency was inconclusive: 79.4 µM [inhibitor, partial curve, poor fit].
With `Cc1c(C(=O)C(=O)N2CC=C(c3ccccc3)CC2)c2ccccc2n1C` the Potency was inconclusive: 89.1 µM [inhibitor, single point].
For `CCCC(=O)N1c2ccccc2-c2nnc(SC)nc2OC1c1sccc1C` (stereo not given), the Potency was inconclusive: 31.6 µM [inhibitor, partial curve, poor fit].
With `COC(=O)CCCC1=CC2=C(c3ccccc3)C(=O)C(C)(OC(=O)C3CCCC3)C(=O)C2=CN1Cc1ccco1` (stereo not given) the activity, negative = inhibition was inactive: 1.25% [at 12.7 µM].
With `CCOC(=O)C1=C(O)/C(=C\c2ccc(O)c(OCC)c2)N=C1C` the Potency was inconclusive: 89.1 µM [inhibitor, single point].
With `O=C(CCSc1ccccc1Cl)NNC(=O)c1ccncc1` the Potency was “inactive”.
With `CCOC(=O)C1=C(C)N(CCCCCC(=O)O)C(=O)NC1c1ccc([N+](=O)[O-])cc1` (stereo not given) the Potency was inconclusive: 44.7 µM [inhibitor, partial curve].
In the case of `CCOC(=O)c1sc(NS(=O)(=O)c2cc(C)ccc2C)nc1C`, the Potency is reported as inconclusive: 89.1 µM [inhibitor, partial curve, poor fit].
`Cc1ccc(C)c(N2CCN(S(=O)(=O)c3cc(C(=O)Nc4ccccc4C(F)(F)F)ccc3F)CC2)c1` was tested, and the Potency was “inactive”.
In the case of `COc1ccc(-n2c(Cc3cccn3C)nnc2SCC(=O)Nc2cc(C)cc(C)c2)cc1`, the Potency is reported as inconclusive: 35.5 µM [inhibitor, single point].
In the case of `NC(=O)c1coc(-c2ccccc2)n1`, the Potency is reported as “inactive”.
With `O=C(Nc1nnc(-c2ccccc2)s1)c1cc(S(=O)(=O)N2CCOCC2)c(Cl)cc1Cl` the Potency was inconclusive: 56.2 µM [inhibitor, partial curve].
With `CCN(CC)S(=O)(=O)c1ccc(NC(=O)c2c(C)oc3ncnc(N4CCCCC4)c23)cc1` the Potency was “inactive”.
`O=C1N(Cc2cccnc2)C[C@@H]2C[C@@H](c3ccc(C(F)(F)F)cc3)N3CCC[C@@]123` was tested, and the Potency was inconclusive: 79.4 µM [inhibitor, single point].
For `CCCn1c(SCC(=O)NC2CCCCC2)nnc1-c1cccnc1`, the Potency was “inactive”.
For `CCCn1cc(S(=O)(=O)c2ccc(OC)cc2)c(=O)c2cc(OCC)ccc21`, the Potency was “inactive”.
For `Cc1noc(C)c1-c1ccc2ncnc(NCc3cccs3)c2c1`, the activity, negative = inhibition was inactive: 14.4% [at 0.501 µM].
With `COc1ccccc1NC(=O)N1CCN(c2nnc(C)c3c(C)n(-c4ccccc4)nc23)CC1` the Potency was inconclusive: 3.55 µM [inhibitor, partial curve, poor fit].
With `Cc1ccc(NC(C)C(=O)N/N=C/c2ccc([N+](=O)[O-])s2)cc1` (stereo not given) the Potency was inconclusive: 20 µM [inhibitor, partial curve, poor fit].
With `CC(=O)c1ccc2noc(-c3ccc(Cl)cc3)c2c1` the Potency was inconclusive: 39.8 µM [inhibitor, partial curve].
In the case of `Cc1ccccc1NCC(=O)N/N=C/c1ccc([N+](=O)[O-])cc1`, the Potency is reported as inconclusive: 89.1 µM [inhibitor, single point].
`CC1=C(c2ccc(C)c(C)c2)S(=O)(=O)N=C1N1CCC(C(=O)NCc2ccc(N(C)C)cc2)CC1` was tested, and the Potency was “inactive”.
For `CCOC(=O)c1c(NC(=O)CSc2ncn[nH]2)sc(C)c1C`, the Potency was active: 44.7 µM.
`NC(=O)c1c(NC(NC(=O)c2ccco2)(C(F)(F)F)C(F)(F)F)sc2c1CCCC2` was tested, and the Potency was inconclusive: 2.24 µM [inhibitor, partial curve, poor fit].
`Cc1ccc(-c2nnc(SCC(=O)NCc3ccccc3)o2)cc1` was tested, and the Potency was “inactive”.
`CCN(CC(=O)NCc1cccs1)C(=O)c1cc(S(=O)(=O)NCc2ccccc2)ccc1C` was tested, and the Potency was “inactive”.
For `CC(=Nc1ccccc1C)C1=C(O)CSC1=O`, the Potency was inconclusive: 39.8 µM [inhibitor, single point].
In the case of `O=C(Nc1ccc(C(=O)Nc2ccccc2Cl)cc1)c1cccnc1`, the Potency is reported as inconclusive: 89.1 µM [inhibitor, single point].
In the case of `Cc1ccccc1N=Nc1c(C)[nH]n(C(N)=S)c1=O`, the Potency is reported as inconclusive: 22.4 µM [inhibitor, single point].
For `O=S(=O)(c1ccc(NC(=S)Nc2ccc3c(c2)OCO3)cc1)N1CCOCC1`, the Potency was inconclusive: 25.1 µM [inhibitor, single point].
For `COc1ccc(S(=O)(=O)N2CCOCC2)cc1NC(=O)CCNC(=O)c1ccc([N+](=O)[O-])cc1`, the Potency was active: 3.55 µM.
In the case of `COc1ccc(CNC(=O)c2cnn(-c3ccccc3)c2-n2cccc2)cc1OC`, the Potency is reported as “inactive”.
With `O=C(O)COc1ccc(C(NC(=O)c2c(F)cccc2F)NC(=O)c2c(F)cccc2F)cc1` the Potency was “inactive”.
With `Cc1ccc(NC(=O)Cn2nc(C)c3nn(-c4ccc(Cl)cc4)c(C)c3c2=O)cc1F` the Potency was “inactive”.
With `O=C(O)c1ccc(-c2nc3ccccc3s2)o1` the activity, negative = inhibition was inconclusive: -77.6% [inhibitor].
In the case of `CC1N(C)c2cc(NC(=O)c3ccco3)ccc2C1(C)C` (stereo not given), the Potency is reported as inconclusive: 50.1 µM [inhibitor, partial curve, poor fit].
In the case of `O=C(CSc1ccc2nnc(-c3ccccn3)n2n1)NCC1CCCO1` (stereo not given), the Potency is reported as inconclusive: 56.2 µM [inhibitor, partial curve].
For `Cc1noc(C)c1-c1ccc2ncnc(NCc3cccc(-c4ccccc4)c3)c2c1`, the activity, negative = inhibition was inactive: 8.29% [at 12.7 µM].
With `CCOc1ccc(NC(=S)N(Cc2ccc(N(C)C)cc2)Cc2ccco2)cc1` the Potency was active: 39.8 µM.
For `Cc1nc(-c2ccccc2)sc1C(=O)O`, the Potency was inconclusive: 44.7 µM [inhibitor, partial curve, poor fit].
With `NC(=O)CN1C(=O)C(O)(CC(=O)/C=C\C=C\c2ccccc2)c2ccccc21` (stereo not given) the Potency was inconclusive: 7.08 µM [inhibitor, partial curve, poor fit].
For `CCOc1ccccc1C1CC(=O)Nc2cc3c(cc21)OCO3` (stereo not given), the Potency was inconclusive: 44.7 µM [inhibitor, partial curve, poor fit].
In the case of `Cc1cc2c(cc(C(=O)NCCCN3CCOCC3)n2Cc2ccc(Cl)cc2)o1`, the Potency is reported as inconclusive: 8.91 µM [inhibitor, single point].
`COc1ccc(/C=N/NC(=O)CNC(=O)c2ccncc2)cc1` was tested, and the Potency was “inactive”.
For `COc1cc(Nc2ccc(C(=O)O)cc2[N+](=O)[O-])cc(OC)c1`, the Potency was inconclusive: 50.1 µM [inhibitor, partial curve, poor fit].
For `CC(OC(=O)c1ncc(Cl)c(Cl)c1Cl)C(=O)NC1(C#N)CCCCC1` (stereo not given), the Potency was inconclusive: 89.1 µM [inhibitor, single point].
In the case of `Cc1ccccc1OCC(=O)N1CCN(C(=O)COc2ccccc2C)CC1`, the Potency is reported as inconclusive: 89.1 µM [inhibitor, single point].
`O=C1/C(=C\c2ccc([N+](=O)[O-])cc2)CCc2ccccc21` was tested, and the Potency was “inactive”.
